The other results are listed elsewhere or left out.
System: PfAP2-HC AP2 domain (GST-tagged)
Assay: gcPBM binding intensity (ln(normalized median fluorescence intensity)); higher = stronger DNA binding
Outline: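 In this array assay, P. falciparum DNA-binding domains with a GST tag, expressed in E. coli, were applied for 1 h to primer-extended double-stranded 36-bp intergenic genomic probes and negative controls on an Agilent 4 × 180k array. Bound protein was visualised with Alexa488 anti-GST antibody at 488 nm. Binding intensity is the highest Masliner-normalised natural-log median intensity across replicate spots of either probe orientation.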

Row | Sequence | gcPBM binding intensity (ln)
1 | GAGAGGATAGTTCACAGTACTCAGTAACTCTACGGA [XGTACX_site4875] | 9.6
2 | TAATAATATATTTGTAGTACACAATTTTTTATAACT [XGTACX_site3951] | 9.69
3 | CACACGCACGGACACACACACATATAAAATCTATAT [CACACA_site6428] | 11.1
4 | TGTTATTAAAATATAGTGCATAATTAACCATTATAA [GTGCAC_site9594] | 9.5
5 | TACTTATATACACATGTATATTATATATATAATATA [XGTACX_negctrl_site335] | 9.66
6 | TACTATAACAGACATACACACAAAAAAAAAAAAAAA [CACACA_site538] | 9.9
7 | TCATAAATGAAACACACACACACATCTGGATACCCC [CACACA_site3332] | 10.7
8 | AATCAATATAAATAAAATTTTTAATTTTAACCCTAA [GTGCAC_negctrl_site266] | 9.49
9 | ATTATATATATAAAGTGTACAAAAAAAAAAAAAAAA [XGTACX_site3134] | 9.53
10 | AATGTCCTTATTTGCACACACACATATAAGAAATTT [CACACA_site3186] | 10.1
11 | TATAATAAATCATATGCATGTTGAAAAAAAAAAAAA [TGCATGCA_site923] | 9.55
12 | ATTTGAGAGTTAACAAAATATTTGGCCATCTTTTAT [XGTACX_negctrl_site447] | 9.61
13 | AACTCATAGCGGTGTGCACACAAAAAATTAAAAAAA [CACACA_site3033] | 10.2
14 | AAAACAAATTAAAATCGTACAATTATAATGTTAATG [XGTACX_site180] | 9.7
15 | TATAAAATAAAAATTATATATTTTAAATGGATACAA [TGCATGCA_negctrl_site284] | 9.36
16 | ATAGCTAAGATAGCTTGTACATATATTTACATATAT [XGTACX_site3694] | 9.81
17 | ATGCACATTTATAAAAGTACATGTATGTAATATGTT [XGTACX_site830] | 9.76
18 | ATTTAAATGAAAAAATGTACAAAAAGATTTAAACTC [XGTACX_site1489] | 9.99
19 | TTGTATTTACACGATCAACCAAATGGTATATAAATA [GTGCAC_negctrl_site167] | 9.52

Row | Sequence | gcPBM binding intensity (ln)
20 | ATATGTAGTTTTTACCTAATAAAAAAAAAAAAAAAA [CACACA_negctrl_site672] | 9.41
21 | TAAACATATAAAAAGGGTACACATTAAACATAGTAT [XGTACX_site7096] | 9.82
22 | AAATCATTCCTTTATTCACACAATATCTGTATTTAT [CACACA_site4407] | 9.83
23 | ATATATAAAAATATTTGTACATATAGTTATATTTAT [XGTACX_site6114] | 9.73
24 | TTAAGCCGCAATATGGGTACATAGGAAGAAGGGGAA [XGTACX_site8397] | 9.56
25 | TTTCTTTTTCTAGTTATTTTTACTTATCCCTAATTT [TGCATGCA_negctrl_site460] | 9.6
26 | TTATAATTAAGATATAATCAATAATAACAAATGAAC [CACACA_negctrl_site1690] | 9.64
27 | TTCTTTGCTTCTGTTTCACACATTTTTAAAATAAGC [CACACA_site4741] | 9.81
28 | TTAAAGGGAATGTATACACACGTTTCTCTATGTTAT [CACACA_site4793] | 9.89
29 | GTGCGTGCGTGTACTTAACACACATAATATGTATTT [CACACA_site8336] | 9.9
30 | TAATTCCATAAGTAAACACACAAATGCCAAAATTTT [CACACA_site3205] | 9.71
31 | TCCATATGCAAACTGGTGCACAAGTAGCTTTTATAT | 9.66
32 | ATTGTCCTAAATACTACAAAGTAGATCTTTAATATT [CACACA_negctrl_site1795] | 9.61
33 | CAAAAAAGGTCCCGGAGTACATATATAATTTTTTTT [XGTACX_site458] | 9.48
34 | TATATATTGTTATATACACACATGTATATAAAAAAT [CACACA_site3221] | 9.73
35 | GAGATGACATTACACAGTACCCAGGAAATCTACGGA [XGTACX_site4931] | 9.64
36 | GGAATATGTATATTTTGTACGTATACATTTTTTGGG [XGTACX_site7681] | 9.62
37 | TTTATACAAAAAAACAAAATCAAACAAAAAAAAAAA [CACACA_negctrl_site252] | 9.45
38 | GATATATTTTATATATGTACATACAGTGGTAAATAT [XGTACX_site1324] | 9.72

Row | Sequence | gcPBM binding intensity (ln)
39 | AAAATTATATATTTTAGTACATAAAATATTGACATA [XGTACX_site2581] | 9.53
40 | ATGTAATGTTATGTTATGTTTTTTTTTTTTTTGTGT [CACACA_negctrl_site1264] | 9.74
41 | TTTTAAACAGGACACACACACATATATATATATATA [CACACA_site4664] | 10.5
42 | AGTACGTAAATTATAATACACACTATAGGATATTCT [CACACA_site2559] | 9.87
43 | TTTTCTACATCTTGTTGTACGAAAAATAAAAAAAAT [XGTACX_site4620] | 9.17
44 | ATATTATAATATTTATGTACATATATATAATATATA [XGTACX_site1633] | 9.43
45 | TATTAGCATGTTATTACACACAATATAAGATATATA [CACACA_site6775] | 9.65
46 | ACATTTTGTGTTTTAGCACACAATTTTTCAGAATAT [CACACA_site2961] | 9.74
47 | AATATATATTTATAAACACACACCAAAATTTGTGCT [CACACA_site3091] | 9.88
48 | TAAAAAAAAACAGAAACACACATTATTCATATATAT [CACACA_site2049] | 10.2
49 | AAAATATTTATGTATGCATGTTGTAATATTTCTTTA [TGCATGCA_site296] | 9.61
50 | ATTTCCCCTTTTTATTGTACATTTTTATTTGTTACT [XGTACX_site4845] | 10
51 | TATGCTATATATTTAGTGCATATATATAACTTTTAT [GTGCAC_site9902] | 9.42
52 | TATATATGTATCATTACACACATGTATACTTATTTG [CACACA_site4138] | 9.97
53 | TGTATAAATATATATACACACATATTTATATATATA [CACACA_site755] | 9.68
54 | TACATTTGTATAAATAGTACGCGAAAACAAAAAAAA [XGTACX_site6246] | 9.75
55 | ATATATGTGCCCATATATATATATATAAATATATGT [GTGCAC_negctrl_site226] | 9.65
56 | ATAATATAAATAATTATACACACTTAATATATATAT [CACACA_site2782] | 9.76
